Data from patent US11178870B2 (priority 2017, dated 2021).

Assays:
[1] = system: Colletotrichum orbiculare; settings: 250 ppm sprayed (2.5 ml/pot) before inoculation; assessed 6 to 10 days after inoculation
[2] = system: Magnaporthe grisea; assay type: in vivo; settings: Table 7, Test A
[3] = system: Phytophthora infestans; assay type: in vivo; settings: Table 7, Test F

SMILES | control value, Test H (anthracnose on cucumber) [1] | control value, Test A (blast on rice) [2] | control value, Test F (late blight on tomato) [3]
CCn1c(-c2ccc(F)cc2C)c(-n2cc(C)cn2)cc(Br)c1=O [Compound 370] | L (L shows the control value of 50% or less) | – | –
CCn1c(-c2ccc(F)cc2C)c(-n2ncc(C)c2Cl)cc(Br)c1=O [Compound 371] | H (H shows the control value more than 50%) | H (H shows the control value more than 50%) | L (L shows the control value of 50% or less)
